Hit rate of the full screen: of about 44,000 compounds, about 340 (0.77%) were called active. Not shown: some 5% with an inconclusive outcome. Calls come from the whole dose curve; as a rule, active = well fitted inhibition curve with a large enough effect; inconclusive = small, poorly fitted or top-dose-only effect; inactive = flat fitted curve, though single readings scatter. Some of the results follow.
Test: Acumen qHTS Assay for Inhibitors of the mTORC1 Signaling Pathway in MEF (Tsc2-/-, p53-/-) Cells: Sytravon; note: nearly all actives have a fitted effect of over 50% in size
Conditions: phospho-rpS6 immunofluorescence/PI, 24 h; series mostly up to 38.3 µM; activity change, negative = inhibition: at the top concentration
Outline: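 Read-out: phospho-S6 Alexa-488 intensity over PI intensity per well, scored as % active cells using thresholds from rapamycin (7.5 nM) and DMSO controls. Tsc2-/-, p53-/- MEFs exposed to compound for 24 h; PI cell count recorded as viability.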

Activity change, negative = inhibition, inactive:
Cc1ccc(C)c(NC(=O)C(=O)NCCc2csc3nc(-c4ccccc4C)nn23)c1 -9.22%
Cn1c(=O)n(-c2cccc(Cl)c2)c(=O)c2sc3ccccc3c21 -18.4%
Cc1cc(NC(=O)Cn2nc(C)n3cccc3c2=O)ccc1Br -6.53%
CCOC(=O)N1CCC2(CC1)OC(=O)C(C)=C2C(=O)NCc1cccc(OC)c1 -1.45%
COc1ccc(NC(=O)CC2C(=O)N(c3ccc(C)cc3)C(=O)N2Cc2cccnc2)cc1 (stereo not given) -17.4%
CNC(=O)c1sc2ncccc2c1-n1cccc1 1.37%
Cc1cccc(-n2ncc(C(=O)NCc3ccccn3)c2C2CCN(C(=O)OC(C)(C)C)CC2)c1 5.18%
CCCCN1C(=O)CN(C2CCCCC2)C(=O)C1c1ccc(OC(C)C)c(OC)c1 (stereo not given) 4.2%
CCN1CCN(Cc2c(O)ccc3c(C)c(-c4ccccc4)c(=O)oc23)CC1 -0.633%
COc1ccc(CNc2cc(-c3ccc(OC)cc3)nc3nncn23)cc1 -18.1%
O=C(CSc1nc2c(c(=O)[nH]1)CCCC2)Nc1ccc(Br)cc1 -0.589%
Cc1ccc(C)c(N2CCN(c3nc4ccccc4n4c(C)nnc34)CC2)c1 4.36%
Cc1ccc(NC(=O)C(c2ccccc2)N2Cc3ccccc3C2=O)cc1Cl (stereo not given) 4.78%
Cc1ccc(NC(=O)Cn2c(=O)n(CCC(=O)NCc3ccc4c(c3)OCO4)c(=O)c3sccc32)c(C)c1 10.3%
Cc1ccccc1CNC(=O)c1oc2c(c1C)-c1[nH]ncc1CC2 0.778%
Cc1ccccc1Nc1nn2c(=O)c3ccc(C(=O)NCCc4ccc(Cl)cc4)cc3nc2s1 -2.52%
Cc1ccc2nc(Cl)c3cc(C(=O)N4CCCCC4C)sc3c2c1 (stereo not given) -4.9%
CC(C)C1C(=O)Nc2ccc(S(=O)(=O)NCCc3ccc(Cl)cc3)cc21 (stereo not given) 1.41%
COc1ccc(Cl)cc1NC(=O)CN1C(=O)C(C)(C)c2cc(S(=O)(=O)N3CCCCC3)ccc21 -1.42%
Cc1cccc(-n2ncc(C(=O)N3CCN(c4ccc(C)cc4C)CC3)c2C2CCN(C(=O)OC(C)(C)C)CC2)c1 -8.67%
Cc1ccsc1CN(C(=O)c1oc2ccc(Br)cc2c1C)C1CCS(=O)(=O)C1 (stereo not given) -7.74%
Cc1cn(C)c(CC(=O)NCc2ccccc2)c1C(=O)O -1.78%
CCOc1ccc(Nc2c(S(=O)(=O)c3ccc(Cl)cc3)cnc3ccc(OCC)cc23)cc1 -4.15%
CCN1c2ccccc2-c2nc(SCC(=O)NCc3ccc(Cl)cc3)ncc2S1(=O)=O 0.724%
CCOc1ccc(C2c3c(oc4ccc(C)cc4c3=O)C(=O)N2CCCN2CCOCC2)cc1 (stereo not given) -2.79%
O=C(CC1C(=O)N(c2ccccc2)C(=O)N1CCc1cccs1)Nc1ccc(F)cc1 (stereo not given) -2.14%
O=C(CCCn1c(=O)c2cccn2c2cccnc21)NCc1ccccc1Br -10.2%
CSc1ncc(C(=O)N2CCN(c3cccc(Cl)c3)CC2)c(C)n1 -0.777%
Cc1c(C)n(Cc2ccc(F)cc2)c2ccc(C(=O)NCc3ccco3)cc12 -17.8%
CCOc1ccc(CCNC(=O)Cn2nnc(-c3ccccc3Cl)n2)cc1OCC 3.88%
O=C(NCCN1CCN(c2cccc(Cl)c2)CC1)Nc1ccccc1C(F)(F)F -1.26%
Cc1ccc(CNc2nc(-c3ccco3)nn2S(=O)(=O)c2ccc3ccccc3c2)cc1 -0.805%
O=C(CSc1ncc(-c2ccccc2)[nH]1)Nc1ccc(Cl)cc1 -28.2%
Cc1ccc(S(=O)(=O)Nc2cc3c(cc2NCc2ccccc2)n(C)c(=O)n3C)cc1 1.15%
O=C(Cn1c(=O)nc(-c2ccccc2)c2cc(Cl)ccc21)N1CCN(c2ccccc2F)CC1 3.07%
CC(C)COc1ccc(C(=O)N2CCCCC2CCN2CCCCC2)cc1 (stereo not given) -5.76%
COc1ccc(CCNC(=O)c2cnn(-c3cccc(C)c3)c2C2CCN(C(=O)OC(C)(C)C)CC2)cc1OC -0.561%
COc1cccc2c1ncc1c(-c3ccc(C)cc3)nn(-c3ccc(F)cc3)c12 0.604%
Cc1cccc(-c2nnn3c2nc(NCc2ccc4c(c2)OCO4)c2ccccc23)c1 -10.8%
CC(=O)c1ccc(NC(=O)c2noc3c2CSc2ccccc2-3)cc1 0.228%
Cc1ccc(Cl)cc1N1CCN(C(=O)c2c(C)oc3ncnc(N4CCCCC4)c23)CC1 1.88%
CCc1cc(C(=O)Nc2sc(C)c(CC)c2C#N)no1 -17.2%
CCc1ccc(CN2CCc3nc(N4CCN(c5ccccc5F)CC4)ncc3C2)cc1 1.97%
CCCCOc1cccc(C(=O)Nc2cc(NC(=O)c3ccco3)ccc2OC)c1 -0.37%
COc1cccc(NC(=O)CCc2c(C)nc3nc(CNC(=O)c4cccc(F)c4)nn3c2C)c1 -1.69%
CCc1ccc(C2=C(C)C(N3CCC(C(=O)NCc4ccccc4)CC3)=NS2(=O)=O)cc1 0.463%
Cc1ccc(CNC(=O)c2c(O)nc3cc(C)ccn3c2=O)cc1 0.552%
COc1ccc(-c2cnc(C)o2)cc1S(=O)(=O)Nc1c(C)cc(C)cc1C 0%
CC(c1ccccc1)n1cc2c(c1-c1ccccc1Br)c(=O)n(C)c(=O)n2C (stereo not given) -12.2%
C#CCOc1ccc(-c2nnc(Nc3ccc(NC(C)=O)cc3)c3ccccc23)cc1 -3.03%
CCOC(=O)N1CCC(NC(=O)c2cnn(-c3cccc(F)c3)c2-n2cccc2)CC1 10%
Cc1c(Cl)cccc1NC(=O)C1CCCN(c2ncnc3onc(C)c23)C1 (stereo not given) 4.71%
NS(=O)(=O)c1ccc(CCNc2ncnc3c2cnn3-c2cccc(Cl)c2)cc1 2.67%
O=C(NCc1ccccc1Cl)c1ccc2c(c1)N(Cc1ccccc1)C(=O)CS2 9.76%
CC1CCN(S(=O)(=O)c2ccc3c(c2)c(=O)c(C(=O)NC(C)c2ccccc2)cn3C)CC1 (stereo not given) -1.09%
CN(CC(=O)Nc1ccccc1F)S(=O)(=O)c1ccc2c(c1)c(=O)n(C)c(=O)n2C -13%
COc1ccc(CCC(=O)NCc2nc3cccnc3n2Cc2ccc(F)cc2)cc1 1.66%
Cc1ccc(Cl)cc1N1CCN(C(=O)c2ccc3c(c2)CCN3S(=O)(=O)c2ccccc2)CC1 -4.13%
Cc1ccc(-c2nnc(Nc3cccc(O)c3)c3ccccc23)cc1S(=O)(=O)NCC1CCCO1 (stereo not given) -10.8%
O=C(NCCc1ccccc1)c1ccc2c(c1)N(Cc1ccccc1)C(=O)c1ccccc1S2(=O)=O 2.54%
O=C(NCCc1ccccc1)C1CCN(Cc2cc3ccccc3n2Cc2cccc(Cl)c2)CC1 -4.23%
COc1ccc(CNC(=O)c2cc(=O)[nH]c3ccc(S(=O)(=O)N4CCCC4)cc23)c(OC)c1 7.58%
CC(=O)c1cccc(NC(=O)C(CC(C)C)NS(=O)(=O)c2ccc3c(c2)CCN3C(C)=O)c1 (stereo not given) 0.293%
Cc1cc(NC(=O)CSc2nc(-c3ccccc3C)nc3c2c(=O)n(C)c(=O)n3C)no1 3.29%
CCOc1cc(C(=O)Nc2cccc3cccnc23)cc(OCC)c1OCC 1.95%
COc1ccc(Cl)cc1NC(=O)c1ccc2c(c1)CCN2S(C)(=O)=O -6.6%
COc1ccc(-c2cc3nc(C)c(CCC(=O)N4CCN(c5ccc(F)cc5)CC4)c(C)n3n2)c(OC)c1 -18.8%
Cc1ccc(Nc2nc3ccccc3c3nnc(C)n23)c(C)c1 -7.18%
CC(=O)c1cccc(Nc2cc(C)nc3nc(Cc4ccccc4)nn23)c1 2.42%
COc1ccccc1OCC(=O)NC1CC(=O)N(c2ccc3c(c2)OCCO3)C1 (stereo not given) -10.2%
CCCCN(CCCC)CCNC(=O)CN1C(=O)CSc2ccc(S(=O)(=O)N3CCOCC3)cc21 3.1%
CCOC(=O)c1c(C)n(-c2ccccc2)c2ccc(OC(=O)c3cccc(C)c3)cc12 4.56%
COc1cccc(CNC(=O)c2ccc3c(=O)n4nc(Nc5ccccc5)sc4nc3c2)c1 -7.73%
CC(=O)c1cc(-c2ccc(F)cc2)n(CC(=O)NC2CCC(C)CC2)c1C (stereo not given) 4.45%
CC(=O)c1cccc(NC(=O)Nc2nnc(N3CCCC3)s2)c1 -8.43%
Cc1oc2ncn(C)c(=O)c2c1C(=O)NCCCN1CCCCC1C (stereo not given) 0.713%
CCCOc1ccc(CNC(=O)c2ccc(C)c(-n3c(C)nc4cccnc43)c2)cc1 -8.18%
COc1ccc(-n2nc(C(=O)Nc3ccc(Cl)cn3)c3c4ccccc4n(C)c3c2=O)cc1 -13.7%
Cc1cccc(NC(=O)Cn2nc3c4ccccc4n(Cc4ccccc4)cc-3c2=O)c1 -2.93%
O=C(Nc1cccc(C(F)(F)F)c1)N1CC2CCCN2c2ccccc21 (stereo not given) 1.5%
COc1ccc2cc(-c3nnc(Nc4ccccc4)s3)c(=O)oc2c1 -0.105%
Cc1ccccc1C(=O)OCc1cc(=O)n2nc(C(C)C)sc2n1 -10.3%
COc1cc(OC)c(N(C)C(=O)c2cn(C3CCCC3)c(=O)c3c2c2ccccc2n3C)cc1Cl -5.56%
COc1ccc(-n2nc(C(=O)O)c(=O)n(C)c2=O)cc1 -6.12%
Cc1ccc(N2CCN(C(=O)c3cnn(-c4ccc(F)cc4F)c3C3CCN(C(=O)OC(C)(C)C)CC3)CC2)c(C)c1 3.64%
CCN1CCN(C(c2ccc(C)cc2)c2c(O)cc(C)n(Cc3ccco3)c2=O)CC1 (stereo not given) -1.45%
CN(Cc1ccccc1)S(=O)(=O)c1ccc2[nH]c3c(c2c1)CCCCC3 -4.19%
CC1=C(C(=O)Nc2ccc(C)cc2C)C(c2ccc(C(=O)O)cc2)n2nc(SCc3ccccc3)nc2N1 (stereo not given) -1.86%
Cc1ccc2c(c1)c1c(c(=O)n(-c3ccccc3)c(=O)n1CC(=O)c1ccc(F)cc1)n2C -0.791%
Cc1ccc(NC(=O)c2ccc(CN3CC(=O)N4CCCCC4C3=O)cc2)cc1 (stereo not given) -20.5%
CCc1cccc(NC(=O)Cn2c(=O)n(-c3cccc(Cl)c3)c(=O)c3c2c2cc(C)ccc2n3C)c1 9.52%
COc1ccc(OC)c(CNC(=O)c2cnc3c(C)cccn3c2=O)c1 0.0187%
CCc1nn2c(=O)cc(COC(=O)c3ccc(NC(=O)COc4ccc(C)cc4)cc3)nc2s1 14.9%
Cn1c(SCC(=O)N2CCCc3ccccc32)ncc(C(=O)Nc2ccccc2)c1=O -8.65%
CSc1ccc(Cn2nnc(C(=O)Nc3ccc(C)cc3Cl)c2N)cc1 -2.48%

Reference: PubChem BioAssay AID493208 (National Center for Advancing Translational Sciences (NCATS), 2011)
